The supplement of paper PMC4604168 (melanoma cell lines)
The list shows a part of the results. Single values are uncertain, as repeats are few or missing.

Each compound was assayed on A375 (assay: cell count relative to DMSO control; melanoma cells; higher = more viable cells). Conditions: library dose: standard library concentration; 72 h.
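Further: cells treated in 1,536-well plates, then fixed and DAPI-stained, with nuclei counted from automated high-throughput microscope images.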

| SMILES | cell count [%] |
| --- | --- |
| C#Cc1cccc(Nc2ncnc3cc(OCCOC)c(OCCOC)cc23)c1 [erlotinib] + Cc1cc(N2CCOCC2)cc2[nH]c(-c3c(NC[C@@H](O)c4cccc(Cl)c4)cc[nH]c3=O)nc12 [BMS536924] (first compound 4 µM, partner dose 1 µM) | 99.2 |
| C#Cc1cccc(Nc2ncnc3cc(OCCOC)c(OCCOC)cc23)c1 [erlotinib] + OCCn1cc(-c2cnc3nnn(Cc4ccc5ncccc5c4)c3n2)cn1 [PF04217903] (first compound 4 µM, partner dose 5 µM) | 106 |
| COCC[n+]1c2c(n(Cc3cnccn3)c1C)C(=O)c1ccccc1C2=O + Cn1cncc1[C@@](N)(c1ccc(Cl)cc1)c1ccc2c(c1)c(-c1cccc(Cl)c1)cc(=O)n2C [tipifarnib] (first compound 0.002 µM, partner dose 0.05 µM) | 75.7 |
| O=C(CCCCCCC(=O)Nc1ccccc1)NO [vorinostat] + O=C(O)c1ccc(-c2c[nH]c3ncc(-c4ccccc4)cc23)cc1C1CCCC1 [GSK650394] (first compound 0.4 µM, partner dose 0.8 µM) | 86.6 |
| Clc1ccc(Nc2nnc(Cc3ccncc3)c3ccccc23)cc1 [vatalanib] + COc1cc(Nc2ncc(F)c(Nc3ccc4c(n3)NC(=O)C(C)(C)O4)n2)cc(OC)c1OC [Tamatinib] (first compound 10 µM, partner dose 2 µM) | 67.6 |
| Nc1cccc2c1CN(C1CCC(=O)NC1=O)C2=O (stereo unspecified) [lenalidomide] + Cc1cc(N2CCOCC2)cc2[nH]c(-c3c(NC[C@@H](O)c4cccc(Cl)c4)cc[nH]c3=O)nc12 [BMS536924] (first compound 5 µM, partner dose 1 µM) | 98.8 |
